Measurements published in paper PMC9574860, “Chemical Toolkit for PARK7: Potent, Selective, and High-Throughput” (Journal of Medicinal Chemistry, 2022).
Screen size: about 7,900 compounds; about 400 (5.1%) showed an effect of 50% or more. Some of the results follow.

The compounds below were run against Parkinson's disease protein 7 (PARK7/DJ1) (human, UniProt Q99497) (assay: primary screen, percent inhibition; read as competition with a fluorescent probe by fluorescence polarization; higher = more effect of the substance). Details: 100 µM.
Sequence of Parkinson's disease protein 7 (PARK7/DJ1) (Q99497 whole entry, looked up, the tested form may be a part): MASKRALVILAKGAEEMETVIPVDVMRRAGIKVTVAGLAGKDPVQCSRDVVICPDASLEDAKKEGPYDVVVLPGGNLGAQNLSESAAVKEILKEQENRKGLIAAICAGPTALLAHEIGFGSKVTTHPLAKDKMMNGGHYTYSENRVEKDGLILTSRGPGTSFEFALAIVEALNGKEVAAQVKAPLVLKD
Procedure, shortened: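 Covalent fragments at 100 μM final were incubated 2 h with 0.2 μM PARK7, then 20 nM probe JYQ-107 added for a further 2 h. Fluorescence polarization read at 480/520 nm; relative FP loss versus reference controls gave remaining enzyme activity.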

| SMILES | Inhibition % |
| --- | --- |
| CN(C)C=O.Cc1c(C(=O)O)sc2nc(S)[nH]c(=O)c12 | 4.25% |
| CN(C)C(=O)c1ccc(NC(=O)CCl)cc1 | 44.1% |
| N#CC1CC2(CC(=O)N2)C1 (stereo not shown) | 5.93% |
| C=CC(=O)Nc1ccc2occc2c1 | 9.28% |
| C=CC(=O)N1CCN(C(C)c2ncc(C)s2)CC1 (stereo not shown) | 6.75% |
| N#CC(=Cc1ccc(Cl)cc1)c1ccno1 | 2.84% |
| CCc1nc(C#N)c(NCc2ccccc2Cl)o1 | 3.03% |
| NC(=O)C1CCN(S(=O)(=O)C=Cc2ccccc2)CC1 | 9.73% |
| Cc1csc(CNC(=O)C(C#N)=Cc2ccco2)n1 | 8.21% |
| C=CC(=O)N1CC(C)(C)OC2(CCCOC2)C1 (stereo not shown) | 11.2% |
| COCC1CN(C(=O)c2c[nH]c(C#N)c2)CC(C)(C)O1 (stereo not shown) | 10.6% |
| N#CCCN(C(=O)CCl)c1ccccc1F | 33.7% |
| CC1(C)OB(C2=CCN(C(N)=O)CC2)OC1(C)C | 13.9% |
| CN(Cc1ccncc1)c1ccc(Cl)c(C#N)n1 | 6.1% |
| C=CC(=O)N1C[C@H](C(N)=O)[C@@H](c2cnn(C)c2)C1 | -0.998% |
| O=C(CCl)Nc1ccc(OC(F)F)c(Cl)c1 | 45.8% |
| C=CC(=O)NC1CCOc2c(Cl)cccc21 (stereo not shown) | 7.42% |
| N#CC(=Cc1cccnc1)C(N)=O | 3.72% |
| C=CC(=O)N1CCCC(n2nc(C)cc2C)C1 (stereo not shown) | 6.14% |
| O=C(O)C=CC(=O)NCc1ccncc1 | 22.4% |
| C=CC(=O)N1CSCC1C(=O)N(C)C (stereo not shown) | 7.82% |
| C=CC(=O)NC(C)C(=O)N1CCc2ccccc21 (stereo not shown) | 6.75% |
| Cc1noc(C)c1CNC(=O)CCl | 46.7% |
| O=C(O)c1ccc(CN2C(=O)CCC2=O)cc1 | 1.74% |
| O=C(CCl)Nc1ccc(S(=O)(=O)N2CCCCC2)cc1 | 92.7% |
| C=CC(=O)N1CC(CC2CCOCC2)C1 | 6.04% |

| SMILES | Inhibition % |
| --- | --- |
| Sc1nccc2ccccc12 | 13.7% |
| CCC1(O)CN(c2cccc(C#N)n2)C1 | 7.19% |
| N#CN=C(N)c1ccccc1 | 4.36% |
| Cl.ClCCn1cc(-c2ccccc2)cn1 | 6.06% |
| O=C(C=Cc1cccnc1)N1CCc2ccccc21 | 4.92% |
| Nc1cncc(S(=O)(=O)F)c1 | 95.6% |
| N#Cc1nncn1CC(=O)Nc1ccc(F)cc1 | -3.5% |
| CC(=O)N1CCc2sc(C(=O)CCl)cc2C1 | 73.5% |
| Cc1ccc(N2C(=O)CN=C2S)cc1C | 3.06% |
| O=C(CCCl)Nc1ccc(N2CCCC2=O)cc1 | 7.14% |
| CC(C)NC(=O)C(C#N)=Cc1ccc(C(F)(F)F)[nH]1 | 4.8% |
| O=C(c1ccc(F)cc1)N1CCCCC(Cl)C1=O (stereo not shown) | -4.93% |
| C=C(C)c1nc(C#N)c(NCc2ccc(F)cc2)o1 | 5.36% |
| C=CC(=O)NCc1ccc2c(c1)OCCO2 | 2.74% |
| O=C(CCl)NCc1ccccc1Cn1cccn1 | 18.8% |
| COc1nnc(CCCl)s1 | 6.72% |
| COc1cc(C)ccc1S(=O)(=O)n1nc(C)cc1C | 6.17% |
| C=CC(=O)N(C)CC1CCn2ccnc2C1 (stereo not shown) | 25.9% |
| N#CC(=Cc1ccc(O)c(O)c1)C(=O)NC1CCCCC1 | 24.4% |
| CCCNC(=O)C(C#N)=Cc1ccnc(O)c1 | 9.15% |
| C=CC(=O)N1CCN(C(=O)CCOC)CC1 | 5.99% |
| NCC1CC2(CC(=O)N2)C1 (stereo not shown) | 4.98% |
| O=C(CN1CSCC1=O)Nc1ccc2c(c1)B(O)OCC2 | 7.53% |
| C=CC(=O)NCC1CCc2ccccc21 (stereo not shown) | 1.96% |
| CCc1nnc(CN(C#N)c2ccc(F)cc2)o1 | 13.8% |
| C=CC(=O)NC1CC(OC)C1 (stereo not shown) | 4.59% |

| SMILES | Inhibition % |
| --- | --- |
| CS(=O)(=O)OC1CCOC(c2cccnc2)C1 (stereo not shown) | 6.42% |
| CCCSCc1cccc(B2OC(C)(C)C(C)(C)O2)c1 | -1.56% |
| NC(=O)c1ccccc1NC(=O)CCl | 0.06% |
| CC(C)c1nn(C)cc1CN(C)C(=O)c1cccnc1S | 11.2% |
| C=CC(=O)N(Cc1cccs1)c1ccc2c(c1)OCCO2 | 7.71% |
| C=CC(=O)NCC1(C)CC2CC2C1 (stereo not shown) | 9.96% |
| C=CC(=O)N1CCC(c2ncco2)CC1 | -1.83% |
| O=C(NCC(F)(F)F)n1ccnc1 | 6.27% |
| Cc1nc(C#N)c(NCc2ccccc2)o1 | 5.82% |
| O=C(N1CCCCCC1)n1ccnc1 | 10.3% |
| CCc1cnccc1C(=O)N1CCCCC1C1OCCO1 (stereo not shown) | 10.2% |
| N#CC(=Cc1cccc(F)c1F)C(N)=O | 11.5% |
| C=CCNC(=O)C(C#N)=CC1=Cc2ccccc2OC1 | 11.3% |
| O=S(=O)(C=Cc1ccccc1)NCc1nnc2n1CCC2 | 11.5% |
| C=CC(=O)Nc1cnn(COC)c1 | 17.1% |
| CCCNC(=O)C(C#N)=Cc1oc(C)nc1C | 19.4% |
| O=S(=O)(F)CCN1c2ccccc2CC1CO (stereo not shown) | 19% |
| O=C1N[C@H](C(=O)O)CS1 | 27% |
| C=CC(=O)N1CCSCC1c1nccs1 (stereo not shown) | 4.55% |
| COc1cc(C)c(S(=O)(=O)n2cccn2)cc1C | 3.89% |
| COc1ccc(C2CCCN2C(=O)CCl)c(OC)c1 (stereo not shown) | 20.8% |
| CC(=O)Nc1ccc(SC2CC(C)OC2=O)cc1 (stereo not shown) | 2.06% |
| CC1(C)OB(c2cc3ccccc3cc2Br)OC1(C)C | 11.9% |
| O=C(CCl)c1ccc(O)cc1 | 86.7% |
| C=CC(=O)NC(C)C12CCCCC1C2 (stereo not shown) | 2.87% |
| CC1CCC(C)N(C(=O)c2cc(B(O)O)ccc2F)C1 (stereo not shown) | 0.286% |

| SMILES | Inhibition % |
| --- | --- |
| O=C1CCCN1CCCl | 5.09% |
| CCOc1ccc(S(=O)(=O)n2cccn2)cc1 | 9.76% |
| O=S(=O)(F)c1ccc2c(c1)NCC2 | 26.6% |
| N#Cc1ccc2cc[nH]c2n1 | 68.4% |
| N#Cc1cccc(NC(=O)CCl)c1 | 7.05% |
| CC(=O)Nc1ccc(Sc2nccnc2C#N)cc1 | 18.2% |
| CCOCOc1cnccc1B1OC(C)(C)C(C)(C)O1 | 12.4% |
| Cc1nc(CN(C#N)c2ccc(F)cc2)oc1C | 13.5% |
| C=CC(=O)N1CCOc2ncccc21 | 20% |
| CC1(C)OB(c2cncc(F)c2)OC1(C)C | 4.04% |
| C=CC(=O)NCCc1cnc2c(Cl)cnn2c1 | 9.87% |
| O=C(CCc1ccc(S(=O)(=O)F)cc1)NC1CCCC1 | 2.71% |
| C=CC(=O)N1CCN(C(=O)CN2C(=O)CCC2=O)CC1 | 6.08% |
| CC(NC(=O)CCl)c1ccc(Cl)c(Cl)c1 (stereo not shown) | 7.15% |
| C=CC(=O)N1CCOc2cc(F)ccc21 | 9.72% |
| Cc1nc(Sc2nccnc2C#N)oc1C | 9.16% |
| OCC1(Cl)CCOCC1 | 6.53% |
| C=CC(=O)Nc1cc2ccccn2n1 | 30.2% |
| Cc1nc2cc(B3OC(C)(C)C(C)(C)O3)ccc2n1C.Cl | 14.5% |
| Cc1ccc(F)cc1B1OC(C)(C)C(C)(C)O1 | 3.3% |
| CC1(C)OB(c2ccccc2Cl)OC1(C)C | 1.84% |
| O=C(CC1OCCCO1)Nc1n[nH]c2cc(F)ccc12 | 12.7% |
| O=C1CCC(=O)N1CCc1cccc(OC(F)(F)F)c1 | -3.11% |
| C=CC(=O)N1CCc2nn(C(C)C)c(=O)cc2C1 | 15.2% |
| C=CC(=O)N1CCN(c2ncc(C)s2)CC1 | 9% |
| Cc1csc(N2CCN(C3CC(C)OC3=O)CC2C)n1 (stereo not shown) | 1.27% |

| SMILES | Inhibition % |
| --- | --- |
| COc1cc(C)c(Cl)cc1S(=O)(=O)n1nc(C)cc1C | -0.373% |
| CNc1nc(SC2CCOC2=O)nc2ccccc12 (stereo not shown) | 6.64% |
| COC(=O)c1ccc(CN(C#N)c2ccccc2)o1 | 14.6% |
| Cc1onc(-c2ccc(F)cc2)c1B1OC(C)(C)C(C)(C)O1 | 5.39% |
| C=CC(=O)N1CC(C(=O)NC)C1 | 4.07% |
| Cc1cc(-c2ccccc2)nc(S)n1 | 2.88% |
| OB(O)c1ccc(Oc2cccc(C(F)(F)F)c2)cc1 | -1.1% |
| O=C(N1CCCCC1)n1ccnc1 | 4.01% |
| O=C(CCl)NNC(=O)C1CCC1 | 0.122% |
| C=CC(=O)NC(C)c1cnn(C)c1C (stereo not shown) | 5.96% |
| OB(O)c1ccc(OCc2ccccn2)cc1 | 0.486% |
| C=CC(=O)NCC1CCN(CCC)CC1 | 34.8% |
| O=C1N[C@@H]2CCCC[C@H]12 (racemic) | 7.88% |
| CS(=O)(=O)Nc1ccc(C(=O)CCl)cc1 | 75.1% |
| CCCNC(=O)C(C#N)=Cc1cnc2c(C)cccn12 | 0.295% |
| C=CC(=O)NCC1(N2CCOCC2)CC1 | 4.75% |
| O=C(CCl)Nc1ccc(NC(=O)c2cccs2)cc1 | 28% |
| O=C(CCl)N(Cc1ccccc1)C1CC1 | 18.1% |
| CCc1nccn1S(=O)(=O)c1cc(Cl)ccc1OC | 2.99% |
| O=C(NC1CCN(C2CCOC2=O)CC1)c1cccs1 (stereo not shown) | 7.52% |
| O=S(=O)(F)c1ccc(S(=O)(=O)Nc2nccs2)cc1 | 64% |
| ClCC1COCCO1 (stereo not shown) | -2.68% |
| NC(=O)c1ccc(NS(=O)(=O)C=Cc2ccccc2)cc1 | 5.56% |
